The source of these data is a collection of fitness landscapes (doi:10.1126/science.1257360).

To fix the notation:
B1: PhoQ; a variant is named by its letters at X, in order, P23837 (parent)
chain: MKKLLRLFFPLSLRVRFLLATAAVVLVLSLAYGMVALIGYSVSFDKTTFRLLRGESNLFYTLAKWENNKLHVELPENIDKQSPTMTLIYDENGQLLWAQRDVPWLMKMIQPDWLKSNGFHEIEADVNDTSLLLSGDHSIQQQLQEVREDDDDAEMTHSVAVNVYPATSRMPKLTIVVVDTIPVELKSSYMVWSWFIYVLSANLLLVIPLLWVAAWWSLRPIEALAKEVRELEEHNRELLNPATTRELTSLVRNLNRLLKSERERYDKYRTTLTDLTHSLKTPLXXLQXXLRSLRSEKMSVSDAEPVMLEQISRISQQIGYYLHRASMRGGTLLSRELHPVAPLLDNLTSALNKVYQRKGVNISLDISPEISFVGEQNDFVEVMGNVLDNACKYCLEFVEISARQTDEHLYIVVEDDGPGIPLSKREVIFDRGQRVDTLRPGQGVGLAVAREITEQYEGKIVAGESMLGGARMEVIFGRQHSAPKDE

This is one part of the list.

The variants in this experiment derive from B1. Put plainly: enrichment ratio after two sorts for PhoP signalling (ratio (wild type AVST 3.29)); higher = more functional. The settings on record: with PhoP (E. coli).
In the case of LKYV, the enrichment ratio is no more than 0.25. The same measure for WIRR: no more than 0.25. The value for SPRK was no more than 0.25; that for DEKF was no more than 0.25. The value for DNAK was no more than 0.25; that for AFGI was no more than 0.25.

Turning to DPIM, the enrichment ratio was no more than 0.25. The same measure for QQTN: no more than 0.25. The value for YQHA was no more than 0.25; that for DIGV was no more than 0.25; that for LTFW was no more than 0.25.

With IYYQ, the enrichment ratio is no more than 0.25. Consider SGAC, for which the enrichment ratio was 10.1. The same measure for PAMC: no more than 0.25; for WYCP: no more than 0.25.

For QEIS, the enrichment ratio is no more than 0.25. The same measure for DFDN: no more than 0.25; for MMAP: no more than 0.25. In the case of SQAQ, the enrichment ratio stood at 2.89.

On to LNSM, for which the enrichment ratio was 0.463. Consider VINT, for which the enrichment ratio was no more than 0.25. As for HPYG, the enrichment ratio was no more than 0.25. Consider WYKL, for which the enrichment ratio is no more than 0.25. As to YGRE, the enrichment ratio is no more than 0.25. Consider MTMY, for which the enrichment ratio is no more than 0.25. Regarding RMAH, the enrichment ratio was no more than 0.25. In the case of LHTA, the enrichment ratio is no more than 0.25. As for MRKT, the enrichment ratio was no more than 0.25.

Consider LFVP, for which the enrichment ratio was no more than 0.25. Consider IGKG, for which the enrichment ratio was no more than 0.25. The same measure for GTMW: no more than 0.25; for APYK: no more than 0.25. Turning to SREH, the enrichment ratio was no more than 0.25. As to QGCC, the enrichment ratio was no more than 0.25. Take RHFG: the enrichment ratio was no more than 0.25. The same measure for LLHK: no more than 0.25. The same measure for SLRL: no more than 0.25; for FIYL: no more than 0.25.

As for FSHD, the enrichment ratio is no more than 0.25. The value for IPLR was no more than 0.25; that for LIWH was 1.3; that for SNPG was no more than 0.25.

Consider YNKQ, for which the enrichment ratio was no more than 0.25. As to GVTL, the enrichment ratio is 8.09. For the variant YRER, the enrichment ratio was no more than 0.25. The same measure for DPRS: no more than 0.25; for LFES: no more than 0.25.

As to DGLE, the enrichment ratio was no more than 0.25. On to MLIF, for which the enrichment ratio was no more than 0.25. NTNY: the enrichment ratio is no more than 0.25. As for TAPY, the enrichment ratio was no more than 0.25. YMTF: the enrichment ratio was no more than 0.25. The value for FLHS was no more than 0.25; that for LHRA was no more than 0.25; that for TDSQ was 5.71. As for CLVG, the enrichment ratio is no more than 0.25. SYAS: the enrichment ratio was no more than 0.25.

Consider CVLA, for which the enrichment ratio is no more than 0.25. The same measure for VMWG: no more than 0.25; for DYAD: no more than 0.25.

Turning to STVP, the enrichment ratio was no more than 0.25. Consider AGIF, for which the enrichment ratio is 7.16.

As to VGGT, the enrichment ratio was no more than 0.25.

Regarding QFIG, the enrichment ratio is no more than 0.25.

In the case of IWSF, the enrichment ratio was no more than 0.25. The value for ASQQ was 4.99; that for EMSK was no more than 0.25; that for QKHV was no more than 0.25. The value for IIWM was no more than 0.25; that for GSCW was no more than 0.25; that for KKNG was no more than 0.25. For GPHR, the enrichment ratio is no more than 0.25.

Consider QGKS, for which the enrichment ratio is no more than 0.25.

In the case of IGVF, the enrichment ratio is 0.718.

As to VPRY, the enrichment ratio is no more than 0.25. Consider VRTW, for which the enrichment ratio was 0.299. Turning to DKEF, the enrichment ratio was no more than 0.25. RTDP: the enrichment ratio was no more than 0.25.

On to ENDC, for which the enrichment ratio is no more than 0.25. Regarding FAGA, the enrichment ratio was no more than 0.25. For the variant RYDA, the enrichment ratio was no more than 0.25. In the case of QIPR, the enrichment ratio is no more than 0.25. The same measure for IAYV: no more than 0.25; for HNLR: no more than 0.25.

Consider RWIR, for which the enrichment ratio was no more than 0.25. The value for TICQ was 6.36; that for QFHY was no more than 0.25. The value for GFDV was no more than 0.25; that for YTFT was no more than 0.25; that for DGYF was no more than 0.25. The value for HTGL was 1.52; that for GEST was 16.9.

For the variant AQLT, the enrichment ratio amounted to 8.16. For the variant YFSH, the enrichment ratio was no more than 0.25. The same measure for IQQH: no more than 0.25; for YMLT: no more than 0.25; for YRRM: no more than 0.25. Consider FAQH, for which the enrichment ratio is no more than 0.25. For the variant FKIM, the enrichment ratio is no more than 0.25. For the variant GNWW, the enrichment ratio is no more than 0.25. For the variant TFSM, the enrichment ratio was found to be 4.91.

With FSVV, the enrichment ratio stood at 8.92.

With VCCF, the enrichment ratio was no more than 0.25. Consider SCKC, for which the enrichment ratio is no more than 0.25. Turning to RTVD, the enrichment ratio was no more than 0.25. With KCTI, the enrichment ratio is no more than 0.25.

On to MYYM, for which the enrichment ratio is no more than 0.25. The value for VQSM was no more than 0.25; that for KTFR was no more than 0.25. In the case of PTCM, the enrichment ratio was no more than 0.25. On to WMPV, for which the enrichment ratio was no more than 0.25.

DQNI: the enrichment ratio was no more than 0.25. The same measure for INPR: no more than 0.25; for EAVL: no more than 0.25; for LFEQ: no more than 0.25. With LCSM, the enrichment ratio was no more than 0.25. Regarding QFQA, the enrichment ratio was no more than 0.25. The value for QNYQ was no more than 0.25; that for WCYA was no more than 0.25. As for LMAM, the enrichment ratio was no more than 0.25.

Consider HHVY, for which the enrichment ratio was no more than 0.25. In the case of DHGC, the enrichment ratio is no more than 0.25. The value for FPYE was no more than 0.25; that for AYVN was no more than 0.25.

Turning to WKTC, the enrichment ratio is no more than 0.25. The value for PIVN was no more than 0.25; that for RFSM was no more than 0.25.

For the variant SSLA, the enrichment ratio turned out to be 7.43. The same measure for VPHR: no more than 0.25; for NYPK: no more than 0.25.

In the case of TSMG, the enrichment ratio was 13.

Take LPMC: the enrichment ratio is no more than 0.25. The value for FHYQ was no more than 0.25; that for KHVC was no more than 0.25. KSLS: the enrichment ratio was no more than 0.25.

On to WSNV, for which the enrichment ratio was no more than 0.25. The value for HDVT was no more than 0.25; that for LGTK was no more than 0.25; that for EITP was no more than 0.25.

For PTHD, the enrichment ratio is no more than 0.25. As for HNRE, the enrichment ratio is no more than 0.25. The same measure for TQRS: no more than 0.25; for GLCK: no more than 0.25. Regarding MYHW, the enrichment ratio is no more than 0.25. Take NYSY: the enrichment ratio was no more than 0.25. The same measure for GITE: no more than 0.25. Take VIWI: the enrichment ratio was no more than 0.25. On to APEN, for which the enrichment ratio was no more than 0.25.

WNKF: the enrichment ratio was no more than 0.25. Take SELQ: the enrichment ratio was determined as 27.9. The same measure for QIFS: no more than 0.25. The same measure for AVSH: 12.4; for KDHH: no more than 0.25.
